The list shows a part of the results.

For the assay, the target named is T1, MBP-FoxP1dN (Mus musculus, UniProt P58462 326-579).
T1 sequence: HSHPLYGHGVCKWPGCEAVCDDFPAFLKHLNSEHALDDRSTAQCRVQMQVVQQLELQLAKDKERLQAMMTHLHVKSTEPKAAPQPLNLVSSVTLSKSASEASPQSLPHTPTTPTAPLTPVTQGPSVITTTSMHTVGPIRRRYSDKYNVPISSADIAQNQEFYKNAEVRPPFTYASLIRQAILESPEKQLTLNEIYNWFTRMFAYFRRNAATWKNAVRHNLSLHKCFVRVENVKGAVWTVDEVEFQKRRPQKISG
The assay can be described thus: PD-seq (MBP pull-down with sequencing); 20 mM Tris-HCl pH 7.5, 100 mM NaCl, 1.5 mM MgCl2, 0.4 uM protein, 0.1 uM dsDNA library, 30 min, room temperature, amylose pull-down; high values mean tight binding. The conditions noted are these: protein: recombinant; tags: His6-MBP; chain copies: 2; dsDNA, one strand shown. Summed up: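 Binding is given as reads-per-million enrichment, pull-down over input, with replicates pooled. The bait was an N-terminus-lacking mouse FoxP3 or FoxP1 fragment with a His6-MBP tag, expressed in E. coli and used at 0.4 µM with 0.1 µM Klenow-filled degenerate double-stranded DNA library for 30 min at room temperature in Tris pH 7.5 buffer with NaCl and MgCl2. Amylose resin pull-down with three washes was followed by proteinase K release, PCR barcoding and Illumina sequencing.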
For the sequence “GATGATTGTTCTCCCAGCTGATGAATTCTTATCTTCGAGTAAACAAATTTTCCTAATCTTTCTGTTCAAGCGCCATCTAC”, the binding signal was 0.926 RPM ratio (pull-down/input).

On to “GATGATTGTTCTCCCAGCTGATGAATTGCTGGCGTCGAGTAAACAAATTTTCCTAATCTTTCTGTTCAAGCGCCATCTAC”, for which the binding signal was 0.963 RPM ratio (pull-down/input).

With “GATGATTGTTCTCCCAGCTGATGAATTGTAAACTTCGAGTAAACAAATTTTCCTAATCTTTCTGTTCAAGCGCCATCTAC”, the binding signal was 1.57 RPM ratio (pull-down/input).

For the sequence “GATGATTGTTCTCCCAGCTGATGAATTGGTTTTCTCGAGTAAACAAATTTTCCTAATCTTTCTGTTCAAGCGCCATCTAC”, the binding signal is 1.13 RPM ratio (pull-down/input). “GATGATTGTTCTCCCAGCTGATGAATTTCCCCATTCGAGTAAACAAATTTTCCTAATCTTTCTGTTCAAGCGCCATCTAC”: the binding signal was 0.898 RPM ratio (pull-down/input). Regarding “GATGATTGTTCTCCCAGCTGATGAATTCGAACCTTCGAGTAAACAAATTTTCCTAATCTTTCTGTTCAAGCGCCATCTAC”, the binding signal was 0.82 RPM ratio (pull-down/input). As for “GATGATTGTTCTCCCAGCTGATGAATTTTCCCCATCGAGTAAACAAATTTTCCTAATCTTTCTGTTCAAGCGCCATCTAC”, the figure is 0.949 RPM ratio (pull-down/input); as for “GATGATTGTTCTCCCAGCTGATGAATTATCCACTTCGAGTAAACAAATTTTCCTAATCTTTCTGTTCAAGCGCCATCTAC”, 1.04 RPM ratio (pull-down/input); as for “GATGATTGTTCTCCCAGCTGATGAATTGTGAGCATCGAGTAAACAAATTTTCCTAATCTTTCTGTTCAAGCGCCATCTAC”, 1.22 RPM ratio (pull-down/input). As for “GATGATTGTTCTCCCAGCTGATGAATTAAGTAACTCGAGTAAACAAATTTTCCTAATCTTTCTGTTCAAGCGCCATCTAC”, the figure is 0.963 RPM ratio (pull-down/input). As for “GATGATTGTTCTCCCAGCTGATGAATTTTCTGATTCGAGTAAACAAATTTTCCTAATCTTTCTGTTCAAGCGCCATCTAC”, the figure is 0.963 RPM ratio (pull-down/input). For the sequence “GATGATTGTTCTCCCAGCTGATGAATTGCTCCCCTCGAGTAAACAAATTTTCCTAATCTTTCTGTTCAAGCGCCATCTAC”, the binding signal was 0.938 RPM ratio (pull-down/input).

With “GATGATTGTTCTCCCAGCTGATGAATTAAACCGCTCGAGTAAACAAATTTTCCTAATCTTTCTGTTCAAGCGCCATCTAC”, the binding signal is 0.876 RPM ratio (pull-down/input). For “GATGATTGTTCTCCCAGCTGATGAATTTTCAGCTTCGAGTAAACAAATTTTCCTAATCTTTCTGTTCAAGCGCCATCTAC” the value was 0.877 RPM ratio (pull-down/input); for “GATGATTGTTCTCCCAGCTGATGAATTACAATATTCGAGTAAACAAATTTTCCTAATCTTTCTGTTCAAGCGCCATCTAC”, 1.5 RPM ratio (pull-down/input); for “GATGATTGTTCTCCCAGCTGATGAATTGGCTGATTCGAGTAAACAAATTTTCCTAATCTTTCTGTTCAAGCGCCATCTAC”, 0.858 RPM ratio (pull-down/input). For “GATGATTGTTCTCCCAGCTGATGAATTTTCCCTATCGAGTAAACAAATTTTCCTAATCTTTCTGTTCAAGCGCCATCTAC” the value was 0.937 RPM ratio (pull-down/input). For “GATGATTGTTCTCCCAGCTGATGAATTGCGAGACTCGAGTAAACAAATTTTCCTAATCTTTCTGTTCAAGCGCCATCTAC” the value was 1.01 RPM ratio (pull-down/input); for “GATGATTGTTCTCCCAGCTGATGAATTACTGCAATCGAGTAAACAAATTTTCCTAATCTTTCTGTTCAAGCGCCATCTAC”, 1.31 RPM ratio (pull-down/input); for “GATGATTGTTCTCCCAGCTGATGAATTCCCAAGCTCGAGTAAACAAATTTTCCTAATCTTTCTGTTCAAGCGCCATCTAC”, 0.781 RPM ratio (pull-down/input).

For the sequence “GATGATTGTTCTCCCAGCTGATGAATTCCTACCCTCGAGTAAACAAATTTTCCTAATCTTTCTGTTCAAGCGCCATCTAC”, the binding signal is 0.781 RPM ratio (pull-down/input). For “GATGATTGTTCTCCCAGCTGATGAATTATTATCGTCGAGTAAACAAATTTTCCTAATCTTTCTGTTCAAGCGCCATCTAC” the value was 1.4 RPM ratio (pull-down/input); for “GATGATTGTTCTCCCAGCTGATGAATTGCTTTGTTCGAGTAAACAAATTTTCCTAATCTTTCTGTTCAAGCGCCATCTAC”, 1.11 RPM ratio (pull-down/input); for “GATGATTGTTCTCCCAGCTGATGAATTTTCACGTTCGAGTAAACAAATTTTCCTAATCTTTCTGTTCAAGCGCCATCTAC”, 0.913 RPM ratio (pull-down/input). For “GATGATTGTTCTCCCAGCTGATGAATTCGATCGATCGAGTAAACAAATTTTCCTAATCTTTCTGTTCAAGCGCCATCTAC” the value was 0.893 RPM ratio (pull-down/input).

In the case of “GATGATTGTTCTCCCAGCTGATGAATTAGTGTGATCGAGTAAACAAATTTTCCTAATCTTTCTGTTCAAGCGCCATCTAC”, the binding signal was 1.11 RPM ratio (pull-down/input). For “GATGATTGTTCTCCCAGCTGATGAATTGAGCGGGTCGAGTAAACAAATTTTCCTAATCTTTCTGTTCAAGCGCCATCTAC” the value was 0.815 RPM ratio (pull-down/input); for “GATGATTGTTCTCCCAGCTGATGAATTCAAGATATCGAGTAAACAAATTTTCCTAATCTTTCTGTTCAAGCGCCATCTAC”, 0.908 RPM ratio (pull-down/input); for “GATGATTGTTCTCCCAGCTGATGAATTTGGTCTGTCGAGTAAACAAATTTTCCTAATCTTTCTGTTCAAGCGCCATCTAC”, 0.833 RPM ratio (pull-down/input). As for “GATGATTGTTCTCCCAGCTGATGAATTGGCGGAATCGAGTAAACAAATTTTCCTAATCTTTCTGTTCAAGCGCCATCTAC”, the figure is 0.875 RPM ratio (pull-down/input); as for “GATGATTGTTCTCCCAGCTGATGAATTGCGTAGTTCGAGTAAACAAATTTTCCTAATCTTTCTGTTCAAGCGCCATCTAC”, 1.04 RPM ratio (pull-down/input). For the sequence “GATGATTGTTCTCCCAGCTGATGAATTGTGCTCGTCGAGTAAACAAATTTTCCTAATCTTTCTGTTCAAGCGCCATCTAC”, the binding signal is 1.01 RPM ratio (pull-down/input).

The record behind these values is publication PMC12820563, “FoxP3 forms a head-to-head dimer in vivo and stabilizes its multimerization on adjacent microsatellites”.
